Test results: the supplement of paper PMC4604168 (melanoma cell lines)
The other results are listed elsewhere or left out. Repeats are few or missing, and single values can be far off.

Tests used:
Assay in all cases: cell count relative to DMSO control; melanoma cells; higher = more viable cells
Details in all cases: library dose: low library concentration; 72 h
MZ2-MEL = test system: MZ2-MEL
MeWo = test system: MeWo
RPMI7951 = test system: RPMI7951
RVH-421 = test system: RVH-421
SkMel28 = test system: SkMel28
SkMel2 = test system: SkMel2
SkMel30 = test system: SkMel30
SkMel5 = test system: SkMel5
UACC257 = test system: UACC257
UACC62 = test system: UACC62
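Note: cell number obtained by counting DAPI-stained nuclei in high-throughput microscope images with image analysis software, screen run in 1,536-well plates.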

Row | SMILES | cell count (MZ2-MEL) [%] | cell count (MeWo) [%] | cell count (RPMI7951) [%] | cell count (RVH-421) [%] | cell count (SkMel28) [%] | cell count (SkMel2) [%] | cell count (SkMel30) [%] | cell count (SkMel5) [%] | cell count (UACC257) [%] | cell count (UACC62) [%]
1 | O=C(CCCCCCC(=O)Nc1ccccc1)NO [vorinostat] + O=C(Nc1cccc(Cl)c1)Nc1ncc(CCNc2ncnc3ccsc23)s1 [SNS314] (first compound 0.08 µM, partner dose 0.0008 µM) | 99.7 | 98.1 | 93.2 | 82.1 | 82.4 | 112 | 112 | 92.3 | 93.1 | 84.8
2 | Cn1c(Nc2ccc(C(F)(F)F)cc2)nc2cc(Oc3ccnc(-c4ncc(C(F)(F)F)[nH]4)c3)ccc21 + Cc1ccc(NC(=O)c2cccc(N(C)C)c2)cc1NC(=O)c1ccc(O)cc1 [ZM336372] (first compound 0.08 µM, partner dose 2 µM) | 59.8 | 67.4 | 62.1 | 89.5 | 57.8 | 81.9 | 43.3 | 69.1 | 32.8 | 45.8
3 | Clc1ccc(Nc2nnc(Cc3ccncc3)c3ccccc23)cc1 [vatalanib] + O=C(Nc1ccccc1)c1cc([N+](=O)[O-])ccc1Cl [GW9662] (first compound 2 µM, partner dose 2 µM) | 93.1 | 88.1 | 82 | 93.1 | 81.5 | 97.6 | 85.2 | 94 | 87.2 | 85.5
4 | Clc1ccc(Nc2nnc(Cc3ccncc3)c3ccccc23)cc1 [vatalanib] + C=CCn1c(=O)c2cnc(Nc3ccc(N4CCN(C)CC4)cc3)nc2n1-c1cccc(C(C)(C)O)n1 [MK1775] (first compound 2 µM, partner dose 0.02 µM) | 94.2 | 82.4 | 91 | 81 | 86.7 | 78.3 | 100 | 65.7 | 58.8 | 78.2
5 | OCc1c[nH]c2ccccc12 [Indole-3-carbinol] + NC(=O)Nc1cc(-c2cccc(F)c2)sc1C(=O)N[C@H]1CCCNC1 [AZD7762] (first compound 0.8 µM, partner dose 0.02 µM) | 104 | 95.4 | 84.7 | 108 | 110 | 103 | 108 | 111 | 120 | 89.6
6 | COCC[n+]1c2c(n(Cc3cnccn3)c1C)C(=O)c1ccccc1C2=O + CO[C@@H]1[C@H](N(C)C(=O)c2ccccc2)C[C@H]2O[C@]1(C)n1c3ccccc3c3c4c(c5c6ccccc6n2c5c31)C(=O)NC4 [Midostaurin] (first compound 0.0004 µM, partner dose 0.08 µM) | 31.6 | 78.8 | 60.1 | 83.2 | 92.4 | 64.7 | 74.3 | 57.1 | 85.1 | 88.3
7 | Cn1c(Nc2ccc(C(F)(F)F)cc2)nc2cc(Oc3ccnc(-c4ncc(C(F)(F)F)[nH]4)c3)ccc21 + O=C(O)c1ccc(-c2c[nH]c3ncc(-c4ccccc4)cc23)cc1C1CCCC1 [GSK650394] (first compound 0.08 µM, partner dose 0.16 µM) | 71.9 | 70.2 | 61.6 | 69.8 | 52.6 | 78.1 | 44.4 | 68.4 | 40.6 | 56.8
8 | Clc1ccc(Nc2nnc(Cc3ccncc3)c3ccccc23)cc1 [vatalanib] + Oc1cc(-c2nc(-c3ccccc3)[nH]c2-c2ccncc2)ccc1Cl [L779450] (first compound 2 µM, partner dose 0.2 µM) | 82.9 | 94.8 | 98.3 | 66 | 79.6 | 108 | 92.8 | 96.5 | 75.1 | 55.6
9 | C#Cc1cccc(Nc2ncnc3cc(OCCOC)c(OCCOC)cc23)c1 [erlotinib] + C=CCn1c(=O)c2cnc(Nc3ccc(N4CCN(C)CC4)cc3)nc2n1-c1cccc(C(C)(C)O)n1 [MK1775] (first compound 0.8 µM, partner dose 0.02 µM) | 93.3 | 93.4 | 88.6 | 84.7 | 77 | 96.6 | 98.6 | 82.4 | 65.9 | 87.3
10 | COCC[n+]1c2c(n(Cc3cnccn3)c1C)C(=O)c1ccccc1C2=O + O=C(Nc1cccc(Cl)c1)Nc1ncc(CCNc2ncnc3ccsc23)s1 [SNS314] (first compound 0.0004 µM, partner dose 0.0008 µM) | 40.9 | 87.8 | 63 | 84.7 | 95.1 | 90 | 74 | 59.8 | 70.9 | 104
11 | Clc1ccc(Nc2nnc(Cc3ccncc3)c3ccccc23)cc1 [vatalanib] + COc1cc2c(Oc3ccc4[nH]c(C)cc4c3F)ncnc2cc1OCCCN1CCCC1 [cediranib] (first compound 2 µM, partner dose 0.4 µM) | 95.5 | 103 | 94.4 | 87.2 | 93.3 | 90.8 | 117 | 97.8 | 97.7 | 90.1
